We go through 167 variants from the RNAGym collection of RNA variant scans (doi:10.1093/nar/gkz1192).

The source gives no read counts; variants with many changes may rest on few reads.

B1: CPEB3 Ribozyme (parent)
chain: UAACAGGGGGCCACAGCAGAAGCGUUCACGUCGCAGCCCCUGUCAGAUUCUGGUGAAUCUGCGAAUUCUGCUGUAUAUCUC

The variants in the series derive from B1. The series is described as follows: self-cleavage, relative activity (ratio to wild type); higher = more cleavage; in vitro, sequencing. In outline: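 Libraries of CPEB3 self-cleaving ribozyme mutants came from rounds of error-prone PCR and carried barcodes, which DNA sequencing matched to variants. In vitro transcription used T7 RNA polymerase at 37°C for 5 hours, with a further 15 min in DNase I before EDTA stopped the reaction; the ribozymes cleaved during both steps. The RNA was reverse transcribed with template switching and sequenced on Illumina. Relative activity is the cleaved/total read fraction of a variant divided by that of the unmutated ribozyme, averaged over three batches with at least 5 reads.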
Turning to U26C C29U U67C, the self-cleavage came to 0.14. As for U26C G30U A35U U67G U72G, the figure is 0.08; as for U26C C62U U74G U78A, 0.03; as for U26C G30A U69C, 0.2. As for U26C C34A U49A, the figure is 0.13; as for U26C C32U U48A U58C, 0.05; as for U26C C32U C37A C40G U43A U58C, 0.06.

Consider U26C C27G U69A, for which the self-cleavage came to 0.21. As for U26C U41G U66G G70A U80C, the figure is 0.12; as for U26C C32A A64G U67C, 0.34; as for U26C U41C U60C U72C, 0.1. As for U26C C32A U60A, the figure is 0.4; as for U26C G61A A64G, 0.18. U26C G61A A64U: the self-cleavage was found to be 0.12. As to U26C C59U U78C, the self-cleavage stood at 0.45. Turning to U26C A56G U78A, the self-cleavage is 0.28. For U26C A65G U74A the value was 0.38; for U26C C29U G42C U66C U78C U80C, 0.07; for U26C U31C C79U, 0.53. As for U26C U43G U48C A77U, the figure is 0.2. As for U26C G55A U72A, the figure is 0.29; as for U26C A47G U49C U51C A57U, 0.21; as for U26C A56G C68A U78C, 0.19.

With U26C C32U U49C U66C, the self-cleavage came to 0.07. As to U26C C27U U54C A57G, the self-cleavage turned out to be 0.13.

Consider U26C C27U A45G, for which the self-cleavage turned out to be 0.42. As for U26C U43G A56U U67A, the figure is 0.22; as for U26C G53A U54C U74C U78A, 0.37. For U26C U31C A47G U54C U66A the value was 0.13; for U26C C40U U69G, 0.15.

For U26C C37U G73U, the self-cleavage was determined as 0.42. As for U26C G36A C62A, the figure is 0.13; as for U26C A57G U74A U80C, 0.46. As for U26C U41A A47G G52A U69C U80G, the figure is 0.07.

Regarding U26C U31A A64G U69A, the self-cleavage amounted to 0.14.

In the case of U26C G33U C40U U80C, the self-cleavage was determined as 0.1. For the variant U26C U41C G46U U49C, the self-cleavage worked out at 0.19. For U26C G33A A57U A64G U67A C71G, the self-cleavage is 0.09. As for U26C C32U U76C U80C, the figure is 0.13; as for U26C G30U U80C, 0.19; as for U26C A47G U54C U58C, 0.37. As for U26C A57G U67C, the figure is 0.12; as for U26C C38A U66C, 0.29. Turning to U26C C34U U69A, the self-cleavage came to 0.2.

On to U26C U43A A77U, for which the self-cleavage stood at 0.28.

Turning to U26C U31C A35U U69C, the self-cleavage was determined as 0.29. On to U26C A56U A77G, for which the self-cleavage turned out to be 0.41. For U26C A64U U74C the value was 0.19. For U26C U31C U49C G52C the value was 0.22.

Take U26C U41G U69C: the self-cleavage amounted to 0.15.

Consider U26C U43C A47G U69A, for which the self-cleavage came to 0.39.

In the case of U26C U31C G36A, the self-cleavage is 0.13.

Regarding U26C A47G U51C U76C, the self-cleavage is 0.17. Turning to U26C C32A U78C, the self-cleavage came to 0.15. On to U26C A64G C79A, for which the self-cleavage was determined as 0.3. For the variant U26C U31C U54A U80A, the self-cleavage amounted to 0.3.

Take U26C U41C U72C: the self-cleavage was 0.43. For U26C U41C U72A the value was 0.35. For U26C U41A U54C C68A the value was 0.08; for U26C A65U U72A, 0.1; for U26C C40U U41C U66C U69C A75G, 0.06.

As for U26C U41A G63A A65C U67C, the self-cleavage is 0.1. As for U26C U41C U51A A56G, the figure is 0.26. Regarding U26C U31C U41A U80A, the self-cleavage was determined as 0.28. For U26C U43C A45U U69C the value was 0.14.

On to U26C C39A U51C, for which the self-cleavage came out at 0.28. For U26C C32A U49C U51A the value was 0.17; for U26C A57G U67A U74A, 0.47; for U26C U41A A57G, 0.21. As for U26C U43C U60C U66C U69C, the figure is 0.11; as for U26C A64G A65G, 0.31; as for U26C G61C U66C U80C, 0.1. U26C U43C A56G: the self-cleavage is 0.24. For U26C G30U U69A U72C, the self-cleavage was 0.12. Regarding U26C A56G U69A U76C, the self-cleavage was found to be 0.16. For U26C U41A U51C U58C the value was 0.09; for U26C U41G C68A, 0.16. Take U26C G33U U72C: the self-cleavage came to 0.06.

For U26C G33A U41C U49C U66C U74C, the self-cleavage was 0.09. Turning to U26C G36U A64G U76C, the self-cleavage was determined as 0.16. Consider U26C C38U A56G, for which the self-cleavage amounted to 0.17. On to U26C C38U U49C C50U U51C U60C U78C, for which the self-cleavage stood at 0.05. In the case of U26C G36A G55A, the self-cleavage stood at 0.07. As for U26C G33C C34U A75U, the figure is 0.17; as for U26C G30A U31A A47C, 0.23. As for U26C G33U C34G A75C, the figure is 0.28; as for U26C U43A U67C U76C, 0.05. For U26C G30A U60G the value was 0.15. For U26C A47G U80A, the self-cleavage was found to be 0.41. For U26C U31A U41A U69C A75G, the self-cleavage turned out to be 0.09. For the variant U26C U31G U60C, the self-cleavage worked out at 0.07.

U26C C34A C40U: the self-cleavage stood at 0.19. For U26C C34U U66C, the self-cleavage amounted to 0.13. For U26C A47G U49C U69A the value was 0.13. For U26C C38A U48C the value was 0.08; for U26C U41A G42A U49C U67C, 0.08; for U26C A57G U72A U78A, 0.2.

As for U26C A56C G73A, the self-cleavage came to 0.46. In the case of U26C G46A A65U A77G, the self-cleavage worked out at 0.11. On to U26C U41A U58G U67C, for which the self-cleavage came out at 0.18. With U26C G30U U60C A64G, the self-cleavage turned out to be 0.31. As for U26C C59A U67A U80G, the figure is 0.1. In the case of U26C U43A U49C U51A U72C U74C A77G, the self-cleavage stood at 0.14. For U26C G30A C34G the value was 0.09; for U26C U41C A45U U49C U60C, 0.06; for U26C U41C G52A G63C U72C, 0.29. On to U26C U31A C59U, for which the self-cleavage was 0.37. On to U26C C59G U80G, for which the self-cleavage was found to be 0.2. For U26C C27A U54A U60C A65G U67C the value was 0.06.

On to U26C G52A U67A A75U U80C, for which the self-cleavage was found to be 0.21. For U26C U31C C62G the value was 0.1; for U26C G42A U43C A47G A56U, 0.12.

Consider U26C C39G A64G U72C, for which the self-cleavage was 0.07.

Take U26C A56U C62U A65G: the self-cleavage was found to be 0.12. As for U26C U31A A35G U72A, the figure is 0.13. As for U26C C50G A65U, the figure is 0.13; as for U26C U31C A35G U41A G42U A57G U67C, 0. In the case of U26C U41A A47G U72C, the self-cleavage came to 0.09. U26C C32A A45G: the self-cleavage is 0.22. Turning to U26C C29U U48C U54A, the self-cleavage is 0.09. As to U26C U31A A57G, the self-cleavage was determined as 0.25. As for U26C A77U U80C, the figure is 0.56; as for U26C C29A C39U U80C, 0.15.

Regarding U26C A56G U67C, the self-cleavage amounted to 0.17. Take U26C C29G C39U: the self-cleavage was 0.16. As for U26C A56U U74C, the figure is 0.49.

In the case of U26C U43C A45U U48C A56G C62A, the self-cleavage is 0.12. For U26C A47U U58A the value was 0.52; for U26C C62U U72C U76A, 0.12; for U26C U31C A35U, 0.29. For the variant U26C A56G C81U, the self-cleavage amounted to 0.6. For U26C U31A C50G A75G the value was 0.06; for U26C C29U U41C U78C U80C, 0.11; for U26C G55U A56G, 0.38.

For U26C U41A C44U, the self-cleavage came to 0.08. For U26C C32A A45U U49C A65G the value was 0.11; for U26C G53A C62U, 0.13; for U26C C71A U72C, 0.09. For U26C U31C A45U U49C U66A, the self-cleavage was found to be 0.16. For U26C A65G C68G, the self-cleavage was 0.16. As for U26C U43A A57G U72C, the figure is 0.4; as for U26C G30A G63A, 0.22; as for U26C U43C A47U U51A U72C, 0.05. For U26C U41C A77U, the self-cleavage turned out to be 0.48. For U26C U41A U48C the value was 0.17; for U26C C38U A57G C81U, 0.21; for U26C C44U U49C C62U, 0.06. As for U26C C34U U43C A64U, the figure is 0.3; as for U26C C29U U43C U48C U69A U80C, 0.05. For U26C G46U G61A, the self-cleavage came out at 0.17. As for U26C U48A A57G U72G, the self-cleavage came to 0.08.

Regarding U26C G55A C59U U72A, the self-cleavage is 0.07. As for U26C U41C U67G A75G A77G, the self-cleavage was found to be 0.07. As for U26C U43G U76C, the figure is 0.52; as for U26C U43C U48C C71U, 0.14. For U26C U31G A35U U48C the value was 0.21; for U26C U31C C38U G46A U66G, 0.07.

Turning to U26C C39U U54C, the self-cleavage stood at 0.23. Turning to U26C U41A U69C U72C, the self-cleavage worked out at 0.1.

As for U26C U41G A45U A47G, the self-cleavage came out at 0.19.

With U26C U41A G55A, the self-cleavage was determined as 0.3. With U26C A56G A77G, the self-cleavage amounted to 0.25. Turning to U26C A56G A77U, the self-cleavage was determined as 0.26. Take U26C C44A U51C: the self-cleavage amounted to 0.31. With U26C G36C U51C U69C A77U, the self-cleavage worked out at 0.14. Turning to U26C G30C U41C A45U, the self-cleavage turned out to be 0.25. As for U26C U41G A45G U51C A65U U67A U80C, the self-cleavage was found to be 0.07.
